Test results from paper PMC4242493.
The list shows a part of the results. The list includes weakly bound sequences.

What follows are sequences tested against MaxL homodimer (UniProt P61244) (assay: universal protein-binding microarray (PBM)). Details: PBS-based mixture, 10 nM His-tagged protein dimer, 2% milk, 200 ng/uL BSA, 50 ng/uL salmon testes DNA, 0.02% TX-100; detection with Alexa 488 anti-His …; high values mean tight binding; most listed sequences are background and not binding sites; double strand, one strand shown.
UniProt P61244, sequence (P61244 whole entry): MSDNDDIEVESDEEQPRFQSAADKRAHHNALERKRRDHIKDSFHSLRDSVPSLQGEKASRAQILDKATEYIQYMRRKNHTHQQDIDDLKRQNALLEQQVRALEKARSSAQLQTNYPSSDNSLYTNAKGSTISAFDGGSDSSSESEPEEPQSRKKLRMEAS

Sequence | binding signal (normalized occupancy)
ACTGACCT | 0.0762
ACCCCGTC | 0.0728
GGTGACGA | 0.0739
CCCCTAAA | 0.0758
ACCGGGTC | 0.0739
GCAACATA | 0.0804
AATGGCTA | 0.0779
GACGAAAC | 0.0653
ATACGGAT | 0.0815
CGAACTGC | 0.0726
CGAACCTA | 0.0687
CCGGCGAA | 0.068
AAACTTCC | 0.0702
AATAAGGT | 0.0762
CGCTGGTA | 0.0726
CCCATTGC | 0.0758
TCGAGCCA | 0.0692
CAAGGGGG | 0.072
AACACGGG | 0.0875
ATTCAGTA | 0.0734
TCGGTCAA | 0.0725
CGAGTAAC | 0.0753
CGAGATTC | 0.0733
ACTATGAA | 0.0773
CCCTCCAG | 0.0701

Sequence | binding signal (normalized occupancy)
ACAAAGAA | 0.0776
CGGGTGGA | 0.0734
AAATCAGT | 0.0738
CAAATTCA | 0.073
GGAAAGCA | 0.0753
GCAACGCC | 0.0765
GACCTGAA | 0.0751
AAATCCTC | 0.0743
AGATAAAT | 0.08
ATAATCGC | 0.0754
AACGTCAC | 0.0801
TACCTTCA | 0.072
CGACTTTA | 0.0687
ACGCTCCC | 0.0776
ATCGTGTC | 0.0864
TAGACGCA | 0.0758
AACCACTC | 0.0751
TAGGAGGA | 0.074
AAAACATG | 0.0907
GCGTCGGA | 0.074
CAGTCTGC | 0.0717
GCCCTCCA | 0.0756
ATAGGAGA | 0.0786
CTACTCAC | 0.0784
GAGTGGAC | 0.0761

Sequence | binding signal (normalized occupancy)
GGTTGGTA | 0.0731
AGGGGTGG | 0.0848
CGCGCTTA | 0.0756
AGATAGGA | 0.0769
CGTAATCA | 0.079
CGGAACGA | 0.0706
GTAGTGGA | 0.0763
CTAGTGTA | 0.0744
ATGTGTAC | 0.0898
CTGAACTC | 0.0726
ACGCCGAA | 0.0725
AAAAGAAA | 0.0762
GGAGCTAC | 0.0689
GCAAAGTA | 0.0737
AGGGCAGG | 0.0734
CGTGTGAA | 0.0833
ACGGGAAT | 0.0768
GTGTTGCA | 0.0825
GCCGTTGA | 0.0691
ATCCCTAC | 0.0804
GTTTGAAA | 0.0753
AACGTCAA | 0.0715
AGTTAGAT | 0.0767
GGGCTGAA | 0.0722
AAATCGCA | 0.0717

Sequence | binding signal (normalized occupancy)
CCCTTCGC | 0.0711
AGATTCAC | 0.0726
CACCATGA | 0.0873
CCCCTGGA | 0.0742
ATCCCATA | 0.0876
AAAGCGCG | 0.0769
GAGATGAA | 0.0817
ACCGGCCA | 0.0707
CGAGTAGC | 0.0702
TGTCCTAA | 0.0734
TAGGTCCA | 0.0711
AGTAATGC | 0.0782
AGCAACCG | 0.0683
CTCGGGTC | 0.0693
GGCAAGGA | 0.0673
CCATCAAC | 0.0773
CTCTAATA | 0.0784
CTCCGATC | 0.0746
AAAGAATG | 0.0744
CTAGTTCC | 0.0687
AAGAGTTA | 0.0733
CGGCAGAG | 0.068
CGCGCATA | 0.0826
AACTAGAG | 0.0684
ACTCTGGC | 0.067

Sequence | binding signal (normalized occupancy)
CATCTGCA | 0.0906
GAAGGACC | 0.0679
CCGCTCGC | 0.069
CCAGAAAC | 0.072
AAACCAGG | 0.0764
CTATGCAC | 0.0874
CAGTGGGA | 0.0731
ATCTAAGC | 0.0747
GTTTCGCA | 0.0757
ATATAGGG | 0.0809
ACTGAATG | 0.0733
GGTCTAAA | 0.0723
GGCTTCCA | 0.0728
GGATACTA | 0.0764
ACTCAAGG | 0.0711
CACGCCTC | 0.0974
CCGGGGAG | 0.0725
ATGGATTA | 0.0792
GACATCGA | 0.0739
AACTAGTT | 0.0666
AAAGGGGA | 0.0742
CCTCCGAG | 0.0716
CTTGTAGC | 0.072
CATCCCGA | 0.0791
ATGCGATA | 0.0794

Sequence | binding signal (normalized occupancy)
AGGTTAAG | 0.0724
CGGGTGGC | 0.0775
CTTTTCCA | 0.0782
AATCGAGA | 0.0714
CAGGTAAA | 0.0783
GCATACGC | 0.0779
GTGTCAAA | 0.0809
ACTACAGC | 0.0783
CGGACTTA | 0.07
CTATGAAC | 0.0747
GTCTCCTA | 0.0763
GGCATGTA | 0.0812
AAGTCTAC | 0.0727
ACGGAATG | 0.0778
CTACGCAG | 0.0715
CGTTCCGC | 0.075
CTGACGTA | 0.0683
ACTGCTCA | 0.0693
CATCTCCA | 0.08
CTATTGCA | 0.0774
CGCTTCAC | 0.0722
CGCTAATC | 0.0771
ACTCTGAT | 0.0719
AACACTCC | 0.0751
GCTATACA | 0.0815

Sequence | binding signal (normalized occupancy)
CTTAGCGC | 0.0686
AAGCTCTC | 0.0729
ACTGTATC | 0.0799
CGCGCAGC | 0.0664
CATTCGGC | 0.0725
CTTGATTC | 0.0768
ACTACTAA | 0.0777
GCAGGGAA | 0.0771
AGCTGTGA | 0.0758
AATCATTC | 0.0797
ATGTTTCA | 0.082
ATCGGAAT | 0.0727
TTCCGAAA | 0.077
AAAACTAG | 0.0719
ACCATAGG | 0.075
ATAGGATA | 0.0787
CTCGACTC | 0.0692
AGTATGGC | 0.0857
AGTGCTTA | 0.075
AAAATAAG | 0.0781
AGTGTTAG | 0.0767
TATTAGCA | 0.0774
AGACGCGG | 0.0692
CTGTTTAC | 0.073
ATCCCCGG | 0.0703

Sequence | binding signal (normalized occupancy)
ATACGGGC | 0.0765
AAAAACTT | 0.0679
ATCCATAA | 0.0867
ATGTTTAC | 0.0826
CGAATGAC | 0.0771
GTCCGACA | 0.0735
GACAGACC | 0.0741
ACTCCAAA | 0.0692
ATTTCGGA | 0.069
GGGTATTA | 0.0764
CGGGTGCA | 0.0755
AACCTCGC | 0.078
CTTGGTAA | 0.0757
TGGTTGAA | 0.0775
CTGTCCTC | 0.073
AAATGTTC | 0.0712
ATTTCAAA | 0.0795
TACTTCCA | 0.0755
CTGCCGGA | 0.0683
CACGTGAG | 0.245
ACTCTAGC | 0.0723
CTTACTAC | 0.0835
GGCCGCTA | 0.0662
CTATCACA | 0.0865
AGCCACCG | 0.0649

Sequence | binding signal (normalized occupancy)
GAAGGCCA | 0.0704
ATGAGAAG | 0.078
AAGCTTCA | 0.0687
GTCCTTGA | 0.0749
CAGCTAGA | 0.0688
AATACAAG | 0.0789
CACTAGAA | 0.0727
ACATCAGG | 0.0749
ATCAAACC | 0.0805
CGTAGTCC | 0.0709
CTACACGC | 0.0967
ATGTGAGC | 0.0803
ACGCATCT | 0.0841
GGATCCAA | 0.0747
ATCTATCG | 0.0779
CAGTTATA | 0.0794
GAGACGGC | 0.0687
ATCCTATG | 0.0842
CAGCAATG | 0.082
